Source: paper PMC4336329 (PLoS ONE, 2015)
Hit rate of the full screen: of about 310,000 compounds, about 14,000 (4.5%) showed an effect of 50% or more. The effect is printed as a negative number. This is one part of the list.

Target: human ether-à-go-go-related gene (hERG) potassium channel (human, UniProt Q12809)
Test: primary screen, population patch clamp on CHO cells stably expressing hERG
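Note: peak tail current of the secondary pulse compared with the same well before compound.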

Sequence of human ether-à-go-go-related gene (hERG) potassium channel (Q12809 whole entry, looked up): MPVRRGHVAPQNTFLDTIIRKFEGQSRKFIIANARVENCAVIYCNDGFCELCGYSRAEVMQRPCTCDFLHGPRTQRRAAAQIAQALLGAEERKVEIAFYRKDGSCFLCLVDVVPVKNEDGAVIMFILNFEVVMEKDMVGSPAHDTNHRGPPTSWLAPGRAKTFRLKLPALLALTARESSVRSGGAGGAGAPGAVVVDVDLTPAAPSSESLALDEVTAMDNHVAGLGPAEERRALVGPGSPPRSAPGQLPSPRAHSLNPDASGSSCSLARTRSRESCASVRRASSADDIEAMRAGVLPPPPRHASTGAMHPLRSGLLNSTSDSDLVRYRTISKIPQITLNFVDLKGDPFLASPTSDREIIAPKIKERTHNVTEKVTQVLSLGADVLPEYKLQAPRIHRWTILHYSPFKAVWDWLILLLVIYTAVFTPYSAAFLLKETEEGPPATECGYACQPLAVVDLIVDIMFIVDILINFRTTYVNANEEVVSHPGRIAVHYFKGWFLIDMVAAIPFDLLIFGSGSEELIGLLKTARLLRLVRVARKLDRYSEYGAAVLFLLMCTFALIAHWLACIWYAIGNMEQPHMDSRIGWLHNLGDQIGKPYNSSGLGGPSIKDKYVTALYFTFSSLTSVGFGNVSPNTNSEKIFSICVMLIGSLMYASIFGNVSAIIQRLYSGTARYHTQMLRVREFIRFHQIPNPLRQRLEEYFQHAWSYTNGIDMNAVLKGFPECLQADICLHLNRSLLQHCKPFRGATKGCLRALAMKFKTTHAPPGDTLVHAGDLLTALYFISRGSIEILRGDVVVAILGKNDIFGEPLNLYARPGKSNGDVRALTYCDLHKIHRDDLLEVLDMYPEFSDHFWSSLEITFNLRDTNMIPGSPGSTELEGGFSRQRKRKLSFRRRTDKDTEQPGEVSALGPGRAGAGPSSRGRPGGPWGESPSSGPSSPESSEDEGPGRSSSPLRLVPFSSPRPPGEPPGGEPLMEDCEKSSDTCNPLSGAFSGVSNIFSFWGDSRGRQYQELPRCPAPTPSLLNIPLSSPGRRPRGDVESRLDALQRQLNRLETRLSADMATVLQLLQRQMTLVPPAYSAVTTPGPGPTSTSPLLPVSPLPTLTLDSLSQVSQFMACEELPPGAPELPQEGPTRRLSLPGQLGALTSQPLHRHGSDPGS

SMILES	hERG current change (%, negative = inhibition) at 10uM [%]
CC[N+]1(CC)CC2=Cc3ccccc3CC2C1.[Br-] (centres unmarked)	-0.332
Cc1ccc(NC(=O)CS(=O)CC(=O)N(C(C)C(=O)NC2CCCCC2)C(C)(C)C)cc1 (centres unmarked)	-5.73
C=CCOC(=O)C1=C[C@H](c2csc3ccccc23)C[C@H](OCCCCO)O1	-21.9
O=C1CC(N2CCN(Cc3ccc4c(c3)OCO4)CC2)C(=O)N1c1ccccc1 (centres unmarked)	-5.99
COc1ccc(S(=O)(=O)NCC(=O)NC2CC2)cc1OC	15.2
CCSc1nnc(NC(=O)Cc2ccc(OC)cc2)s1	2.81
O=C(CCNC(=O)c1ccco1)Nc1cccc(C(F)(F)F)c1	-3.82
CCOC(=O)C1CCCN(C(=O)c2ccccc2NC(C)=O)C1 (centres unmarked)	14.6
O=C(CSc1nnc(CNC(=O)c2ccccc2)o1)c1ccccc1	2.11
CN1C(=O)CC(N2CCC(c3nc4ccccc4[nH]3)CC2)C1=O (centres unmarked)	0.784
Cn1cc(Cl)c(C(=O)NC(=S)Nc2sc3c(c2C#N)CCCCC3)n1	9.46
CCOC(=O)C1CCCN(C(=O)c2cc(COc3ccc(C)nc3)on2)C1 (centres unmarked)	-7.13
Cn1c(N)c(C(=O)COC(=O)COc2ccc(C#N)cc2)c(=O)n(C)c1=O	-24
Nc1c(C(=O)N2CCCCCC2)oc2ccccc12	-10.5
O=C(O)c1ccc2c(c1)C(=O)N(CCc1c[nH]c3ccccc13)C2=O	15
N#Cc1cnn(-c2cccc(Cl)c2)c1N	11.6
CCCC(C(=O)NCc1ccco1)N(Cc1ccco1)C(=O)CNS(=O)(=O)c1ccccc1 (centres unmarked)	1.15
CCC(C)(C)NC(=O)CN(Cc1ccc2c(c1)OCO2)C(=O)CCC(=O)Nc1cc(C)ccn1	-29.4
O=S(=O)(Cc1ccccc1)N1CCC(N2CCN(c3ccccc3)CC2)CC1	-22.7
CC[C@H](C)C(C(=O)N1CCN(C(=O)OC(C)(C)C)CC1)n1cc(C(CO)NC(=O)OC(C)(C)C)nn1 (some centres unmarked)	7.88
CC1(C)COCN1C(=O)c1ccc(Cl)c(Cl)c1	13.6
CCc1ccc(C(=O)NNc2ccccc2F)cc1	-7.54

SMILES	hERG current change (%, negative = inhibition) at 10uM [%]
CCCOC(=O)CN1C(=O)c2ccc(C(=O)OCCC)cc2C1=O	-16.2
OCCc1c[nH]c2cc(F)ccc12	7.46
O=C(O)/C(=C\c1cccs1)c1ccc(F)cc1	6.19
c1coc(-c2nc3c4c5c(sc4ncn3n2)CCCC5)c1	10.6
CCOc1ccc(NC(=O)C2C3C=CC4(CN(C(C(=O)OC)C(C)C)C(=O)C24)O3)cc1 (centres unmarked)	9.85
O=C(COc1ccc(Cl)cc1)NCCS(=O)(=O)N1CCN(c2ccc(F)cc2)CC1	-29
CC(=O)c1c(C)[nH]c(C(=O)Nc2ccc(Cl)cc2)c1C	-9.14
COC(=O)C(NC(=O)c1ccc(F)cc1)(Nc1ncc(S(=O)(=O)c2ccc([N+](=O)[O-])cc2)s1)C(F)(F)F (centres unmarked)	-52.9
Nc1nc(N2CCCCC2)c(C=O)c(N2CCCCC2)n1	-8.28
C(=C\c1ccccc1)/CN1CCN(Cc2nc(Cc3ccccc3)no2)CC1	-65.1
CCC(C)(C)n1nnnc1C(c1cc2ccc(OC)cc2[nH]c1=O)N1CCN(C2CCCCC2)CC1 (centres unmarked)	-59.6
CCc1ccc(NC(=O)NCC2CCN(c3ccc(OC)cc3)C2)cc1 (centres unmarked)	-6.79
COc1ccccc1CNC(=O)Cn1c(=O)oc2cc(Cl)ccc21	0.41
CCN(CC)c1ccc(NC(=O)c2ccco2)cc1	-20.5
CC(=O)Nc1cccc(NC(=O)COc2ccccc2C)c1	5.95
CC(=O)Nc1c(I)c(C(=O)N[C@H]2C(O)O[C@H](CO)[C@@H](O)[C@@H]2O)c(I)c(N(C)C(C)=O)c1I (some centres unmarked)	1.81
CN(c1ccccc1C(=O)N1CCCC1)S(C)(=O)=O	-9.73
Cc1ccc(NC(=O)NCc2cccnc2)cc1C	7.98
NNC(=O)c1ccc(CSc2n[nH]c(=O)[nH]c2=O)cc1	5.23
O=C(CSc1ncn[nH]1)Nc1cccc(S(=O)(=O)N2CCCCCC2)c1	-77.1
Cc1ccc(/C=C/C2=NN(Cc3ccc(Cl)c(Cl)c3)C(=O)CC2)cc1	-1.61
COc1ccc(N=CC=C2OC(C)(C)C(C)(C)O2)cc1OC.Cl	-3.51
